These results are taken from article PMC7350272.

By UniProt entry, the sequences of proteins in these tests, tags left out.
UniProt F8S296: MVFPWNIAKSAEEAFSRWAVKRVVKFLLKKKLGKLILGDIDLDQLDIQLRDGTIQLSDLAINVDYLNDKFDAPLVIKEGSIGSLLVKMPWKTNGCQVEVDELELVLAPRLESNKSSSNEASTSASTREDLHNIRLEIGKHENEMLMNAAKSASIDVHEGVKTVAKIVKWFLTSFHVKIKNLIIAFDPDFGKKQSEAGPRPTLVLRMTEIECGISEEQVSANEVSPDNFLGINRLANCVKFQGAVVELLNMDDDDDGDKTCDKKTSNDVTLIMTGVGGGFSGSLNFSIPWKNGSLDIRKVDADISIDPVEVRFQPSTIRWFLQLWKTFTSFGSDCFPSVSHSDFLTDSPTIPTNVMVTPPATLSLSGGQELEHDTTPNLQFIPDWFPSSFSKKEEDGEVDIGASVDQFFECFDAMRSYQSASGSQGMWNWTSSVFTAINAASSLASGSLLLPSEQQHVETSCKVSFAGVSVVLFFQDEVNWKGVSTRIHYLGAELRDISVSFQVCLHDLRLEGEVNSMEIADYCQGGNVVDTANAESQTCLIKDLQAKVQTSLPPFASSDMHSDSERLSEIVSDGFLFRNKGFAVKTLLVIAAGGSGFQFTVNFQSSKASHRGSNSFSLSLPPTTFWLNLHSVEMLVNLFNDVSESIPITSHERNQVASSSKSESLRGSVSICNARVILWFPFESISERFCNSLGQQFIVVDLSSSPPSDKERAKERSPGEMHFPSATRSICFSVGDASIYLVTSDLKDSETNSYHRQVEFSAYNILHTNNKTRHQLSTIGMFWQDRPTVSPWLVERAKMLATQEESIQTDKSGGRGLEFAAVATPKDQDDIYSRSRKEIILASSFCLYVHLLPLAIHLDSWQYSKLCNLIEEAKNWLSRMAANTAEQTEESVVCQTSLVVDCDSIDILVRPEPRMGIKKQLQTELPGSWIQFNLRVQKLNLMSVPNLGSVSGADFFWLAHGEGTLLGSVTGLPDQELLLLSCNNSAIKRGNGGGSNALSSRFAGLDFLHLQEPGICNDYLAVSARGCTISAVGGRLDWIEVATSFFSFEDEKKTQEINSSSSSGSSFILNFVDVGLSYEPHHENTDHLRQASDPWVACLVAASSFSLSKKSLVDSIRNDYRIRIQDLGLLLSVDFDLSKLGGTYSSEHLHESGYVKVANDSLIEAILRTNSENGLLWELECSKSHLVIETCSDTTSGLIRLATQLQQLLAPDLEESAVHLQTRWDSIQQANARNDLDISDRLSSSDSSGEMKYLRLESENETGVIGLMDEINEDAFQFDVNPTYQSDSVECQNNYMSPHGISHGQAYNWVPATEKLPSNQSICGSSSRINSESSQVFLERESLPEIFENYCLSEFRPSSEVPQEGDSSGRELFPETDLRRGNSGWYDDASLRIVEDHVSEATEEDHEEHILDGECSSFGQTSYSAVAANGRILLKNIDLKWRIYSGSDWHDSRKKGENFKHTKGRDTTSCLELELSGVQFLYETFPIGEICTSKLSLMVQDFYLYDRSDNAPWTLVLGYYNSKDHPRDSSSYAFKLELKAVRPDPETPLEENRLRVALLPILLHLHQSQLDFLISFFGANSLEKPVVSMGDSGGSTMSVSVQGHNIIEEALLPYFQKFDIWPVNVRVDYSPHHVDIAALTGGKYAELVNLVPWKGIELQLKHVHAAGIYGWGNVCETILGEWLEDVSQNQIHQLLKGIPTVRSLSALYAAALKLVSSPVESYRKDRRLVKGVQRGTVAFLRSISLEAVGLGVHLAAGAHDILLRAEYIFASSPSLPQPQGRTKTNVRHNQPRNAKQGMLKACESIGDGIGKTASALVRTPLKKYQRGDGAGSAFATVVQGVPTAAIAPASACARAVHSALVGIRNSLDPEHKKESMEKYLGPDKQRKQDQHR

Holding throughout (assay): two-hybrid; Matchmaker GAL4 system (Clontech), pGADT7 (AD) and pGBKT7 (BD) fusions cotransformed into yeast AH109; positive clones selected on SD medium lacking Trp, Leu and His with 1 mM 3-AT
Assay [1] deals with T1, ATG18C, Arabidopsis (Arabidopsis) (UniProt Q8GYD7).
T1 sequence: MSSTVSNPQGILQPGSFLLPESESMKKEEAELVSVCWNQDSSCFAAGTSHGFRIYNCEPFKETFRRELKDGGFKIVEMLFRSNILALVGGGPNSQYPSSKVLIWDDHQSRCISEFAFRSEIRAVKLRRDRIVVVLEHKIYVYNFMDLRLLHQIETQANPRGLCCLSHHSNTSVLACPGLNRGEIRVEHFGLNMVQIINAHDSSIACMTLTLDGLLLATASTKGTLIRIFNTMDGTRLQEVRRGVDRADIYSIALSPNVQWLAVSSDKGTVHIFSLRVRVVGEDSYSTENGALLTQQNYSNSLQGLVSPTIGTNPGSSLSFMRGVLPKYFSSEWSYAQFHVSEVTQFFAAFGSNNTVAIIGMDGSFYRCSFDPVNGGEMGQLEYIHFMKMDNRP

The target of assay [2] is T2, ATG18F, Arabidopsis (Arabidopsis) (UniProt Q9FH32).
T2 sequence: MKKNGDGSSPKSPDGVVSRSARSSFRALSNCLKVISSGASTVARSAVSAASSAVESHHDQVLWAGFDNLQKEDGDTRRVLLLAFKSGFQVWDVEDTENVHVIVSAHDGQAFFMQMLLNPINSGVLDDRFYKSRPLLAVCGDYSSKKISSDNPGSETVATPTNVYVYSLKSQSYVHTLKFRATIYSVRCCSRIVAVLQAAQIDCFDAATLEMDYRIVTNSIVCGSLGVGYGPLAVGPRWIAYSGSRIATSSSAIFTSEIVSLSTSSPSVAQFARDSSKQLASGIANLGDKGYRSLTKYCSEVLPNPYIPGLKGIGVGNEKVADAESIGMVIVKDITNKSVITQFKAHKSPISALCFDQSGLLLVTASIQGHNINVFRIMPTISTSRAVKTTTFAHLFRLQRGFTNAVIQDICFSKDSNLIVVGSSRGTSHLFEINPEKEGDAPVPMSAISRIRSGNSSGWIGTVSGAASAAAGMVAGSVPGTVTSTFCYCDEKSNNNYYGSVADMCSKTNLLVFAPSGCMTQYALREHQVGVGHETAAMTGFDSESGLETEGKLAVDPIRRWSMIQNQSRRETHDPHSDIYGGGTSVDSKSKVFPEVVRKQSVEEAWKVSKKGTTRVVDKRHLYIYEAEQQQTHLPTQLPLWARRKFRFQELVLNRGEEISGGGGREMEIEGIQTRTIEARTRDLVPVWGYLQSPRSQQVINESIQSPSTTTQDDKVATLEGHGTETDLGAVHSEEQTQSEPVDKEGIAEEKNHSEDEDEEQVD

The target in assay [3] is T3, ATG18G, Arabidopsis (Arabidopsis) (UniProt Q8GUL1).
T3 sequence: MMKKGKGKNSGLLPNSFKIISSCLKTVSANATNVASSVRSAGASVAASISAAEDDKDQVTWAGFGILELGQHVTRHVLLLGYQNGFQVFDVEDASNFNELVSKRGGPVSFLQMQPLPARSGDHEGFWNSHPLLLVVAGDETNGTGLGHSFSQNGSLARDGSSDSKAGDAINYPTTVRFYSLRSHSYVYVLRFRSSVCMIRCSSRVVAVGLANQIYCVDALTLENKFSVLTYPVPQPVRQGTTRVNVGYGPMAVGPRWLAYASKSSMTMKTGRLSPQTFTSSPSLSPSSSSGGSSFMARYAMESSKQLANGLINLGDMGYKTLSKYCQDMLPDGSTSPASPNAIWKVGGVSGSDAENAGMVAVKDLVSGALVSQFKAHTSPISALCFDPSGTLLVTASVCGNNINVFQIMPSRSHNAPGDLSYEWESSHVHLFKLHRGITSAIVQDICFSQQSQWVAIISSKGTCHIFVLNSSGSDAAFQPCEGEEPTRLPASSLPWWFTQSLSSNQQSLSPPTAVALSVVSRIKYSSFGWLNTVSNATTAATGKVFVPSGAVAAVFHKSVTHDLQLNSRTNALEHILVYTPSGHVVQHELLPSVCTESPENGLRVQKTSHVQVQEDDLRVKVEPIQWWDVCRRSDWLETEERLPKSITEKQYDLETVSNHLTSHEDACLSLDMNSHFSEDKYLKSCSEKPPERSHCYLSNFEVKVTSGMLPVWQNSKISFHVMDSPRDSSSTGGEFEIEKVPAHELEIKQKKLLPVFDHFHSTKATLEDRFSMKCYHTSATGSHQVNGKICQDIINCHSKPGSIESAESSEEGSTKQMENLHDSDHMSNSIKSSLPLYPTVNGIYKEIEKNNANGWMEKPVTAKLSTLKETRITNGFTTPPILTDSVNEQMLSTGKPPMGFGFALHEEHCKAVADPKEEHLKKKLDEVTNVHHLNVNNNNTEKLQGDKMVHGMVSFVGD

For assay [4], the target named is T4, ATG18E, Arabidopsis (Arabidopsis) (UniProt Q9FHK8).
T4 sequence: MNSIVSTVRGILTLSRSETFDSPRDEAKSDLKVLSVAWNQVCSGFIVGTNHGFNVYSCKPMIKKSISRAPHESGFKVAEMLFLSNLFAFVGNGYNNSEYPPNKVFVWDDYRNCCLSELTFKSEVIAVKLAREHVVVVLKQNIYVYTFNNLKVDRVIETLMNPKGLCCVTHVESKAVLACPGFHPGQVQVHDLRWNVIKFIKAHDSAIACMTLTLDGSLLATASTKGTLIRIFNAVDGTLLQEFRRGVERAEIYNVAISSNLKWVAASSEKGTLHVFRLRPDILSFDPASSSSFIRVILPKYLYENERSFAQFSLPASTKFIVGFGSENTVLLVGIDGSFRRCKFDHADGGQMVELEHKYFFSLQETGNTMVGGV

In assay [5] the target is T5, ATG18B, Arabidopsis (Arabidopsis) (UniProt Q8H1Q8).
T5 sequence: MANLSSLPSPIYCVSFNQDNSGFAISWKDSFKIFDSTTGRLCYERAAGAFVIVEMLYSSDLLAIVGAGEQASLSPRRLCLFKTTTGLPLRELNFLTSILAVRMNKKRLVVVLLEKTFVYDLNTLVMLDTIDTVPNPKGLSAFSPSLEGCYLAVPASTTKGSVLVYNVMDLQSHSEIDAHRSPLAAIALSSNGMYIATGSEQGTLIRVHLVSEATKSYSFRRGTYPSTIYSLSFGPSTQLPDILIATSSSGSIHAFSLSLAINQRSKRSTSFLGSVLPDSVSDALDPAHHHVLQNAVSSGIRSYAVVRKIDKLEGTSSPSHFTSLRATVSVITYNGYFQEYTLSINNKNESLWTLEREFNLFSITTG

Assay [6] deals with T6, ATG18A, Arabidopsis (Arabidopsis) (UniProt Q93VB2).
T6 sequence: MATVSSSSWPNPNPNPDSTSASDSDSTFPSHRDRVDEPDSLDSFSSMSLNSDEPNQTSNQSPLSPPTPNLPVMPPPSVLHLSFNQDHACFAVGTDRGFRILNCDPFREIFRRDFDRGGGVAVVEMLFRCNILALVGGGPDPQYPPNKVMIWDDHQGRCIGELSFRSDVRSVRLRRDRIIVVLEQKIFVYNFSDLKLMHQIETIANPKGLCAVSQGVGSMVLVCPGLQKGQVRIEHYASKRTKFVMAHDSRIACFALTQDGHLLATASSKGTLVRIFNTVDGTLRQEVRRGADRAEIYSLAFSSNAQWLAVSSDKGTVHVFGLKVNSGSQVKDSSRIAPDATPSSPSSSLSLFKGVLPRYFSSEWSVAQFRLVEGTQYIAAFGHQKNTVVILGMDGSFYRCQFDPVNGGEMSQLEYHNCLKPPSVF

Assay [7] addresses T7, ATG18D, Arabidopsis (Arabidopsis) (UniProt Q0WPK3).
T7 sequence: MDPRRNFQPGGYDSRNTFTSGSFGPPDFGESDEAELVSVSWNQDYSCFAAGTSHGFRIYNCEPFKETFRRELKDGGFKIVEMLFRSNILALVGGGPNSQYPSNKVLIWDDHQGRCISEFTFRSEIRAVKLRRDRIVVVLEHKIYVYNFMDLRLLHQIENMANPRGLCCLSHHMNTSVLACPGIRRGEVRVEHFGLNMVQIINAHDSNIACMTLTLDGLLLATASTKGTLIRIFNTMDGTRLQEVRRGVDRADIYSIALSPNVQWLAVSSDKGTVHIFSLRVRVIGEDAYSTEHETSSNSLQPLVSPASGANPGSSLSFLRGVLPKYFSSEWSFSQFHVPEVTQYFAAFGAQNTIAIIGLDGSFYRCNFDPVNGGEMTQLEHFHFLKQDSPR

Assay [8] concerns the target T8, ATG18H, Arabidopsis (Arabidopsis) (UniProt Q8H1Q5).
T8 sequence: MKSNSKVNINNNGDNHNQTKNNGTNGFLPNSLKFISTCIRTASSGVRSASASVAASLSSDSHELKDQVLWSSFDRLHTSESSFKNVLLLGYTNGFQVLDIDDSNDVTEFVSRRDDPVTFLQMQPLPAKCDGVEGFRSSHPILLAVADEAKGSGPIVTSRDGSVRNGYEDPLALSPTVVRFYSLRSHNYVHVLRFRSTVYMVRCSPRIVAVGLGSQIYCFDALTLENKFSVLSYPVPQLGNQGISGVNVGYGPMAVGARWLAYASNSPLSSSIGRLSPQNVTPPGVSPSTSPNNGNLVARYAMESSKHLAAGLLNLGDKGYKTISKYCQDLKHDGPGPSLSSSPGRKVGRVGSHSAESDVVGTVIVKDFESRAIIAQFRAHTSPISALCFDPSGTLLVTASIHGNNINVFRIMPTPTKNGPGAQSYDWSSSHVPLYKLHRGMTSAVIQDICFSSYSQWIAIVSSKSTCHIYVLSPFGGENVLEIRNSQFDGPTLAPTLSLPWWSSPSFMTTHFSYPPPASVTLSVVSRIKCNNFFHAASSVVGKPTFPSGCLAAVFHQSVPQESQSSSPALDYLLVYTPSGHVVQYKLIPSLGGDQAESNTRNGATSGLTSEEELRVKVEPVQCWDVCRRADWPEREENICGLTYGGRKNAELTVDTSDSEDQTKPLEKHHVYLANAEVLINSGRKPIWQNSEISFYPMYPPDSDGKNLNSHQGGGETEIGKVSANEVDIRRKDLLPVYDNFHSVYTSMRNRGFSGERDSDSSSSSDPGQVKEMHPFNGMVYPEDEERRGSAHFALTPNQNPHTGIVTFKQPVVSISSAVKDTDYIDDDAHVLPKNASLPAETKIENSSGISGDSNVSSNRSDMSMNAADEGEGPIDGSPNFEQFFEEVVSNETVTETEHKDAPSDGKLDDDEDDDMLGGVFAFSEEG

Assay [9] concerns the target Autophagy-related 2 (ATG2), Arabidopsis (Arabidopsis) (UniProt F8S296).

These are yes or no findings as the source states them, for the method shown. Some entries that bind do so weakly or less than the wild type.

In the case of “Autophagy-related 2 (ATG2), Arabidopsis (from UniProt F8S296 1-1892)”, the binding entry in assay [1] was “no binding”; in assay [2] it was “no binding”; in [3], “no binding”; in assay [4], “no binding”; in assay [5], “no binding”; in assay [6], “binds”. Moreover, the binding entry in [7], in assay [8] and in assay [9] was “no binding” throughout.

B1: ATG18A, Arabidopsis (protein, UniProt Q93VB2 1-425)
chain: MATVSSSSWPNPNPNPDSTSASDSDSTFPSHRDRVDEPDSLDSFSSMSLNSDEPNQTSNQSPLSPPTPNLPVMPPPSVLHLSFNQDHACFAVGTDRGFRILNCDPFREIFRRDFDRGGGVAVVEMLFRCNILALVGGGPDPQYPPNKVMIWDDHQGRCIGELSFRSDVRSVRLRRDRIIVVLEQKIFVYNFSDLKLMHQIETIANPKGLCAVSQGVGSMVLVCPGLQKGQVRIEHYASKRTKFVMAHDSRIACFALTQDGHLLATASSKGTLVRIFNTVDGTLRQEVRRGADRAEIYSLAFSSNAQWLAVSSDKGTVHVFGLKVNSGSQVKDSSRIAPDATPSSPSSSLSLFKGVLPRYFSSEWSVAQFRLVEGTQYIAAFGHQKNTVVILGMDGSFYRCQFDPVNGGEMSQLEYHNCLKPPSVF
Consider B1, for which the binding result in assay [9] was “binds”.
